A collection of fitness landscapes (doi:10.1016/j.celrep.2020.107928)
Over roughly 81,000 sequences, “one-hybrid fitness for binding parS DNA” has its median near -0.17; the highest 2% begin near 0.51. The list shows a part of the results.

B1: Caulobacter ParB omega fusion; a variant is named by its letters at X, in order, B8GW30 (parent)
chain: MESVVVGEPGMSEGRRGLGRGLSALLGEVDAAPAQAPGEQLGGSREAPIEILQRNPDQPRRTFREEDLEDLSNSIREKGVLQPILVRPSPDTAGEYQIVAGERAWRAAQRAGLKTVPIMVRELDDLAVLEIGIIENVQRADLNVLEEALSYKVLMEKFERTQENIAQTIGKSXSHVANXMRLLXLPDEVQSYLVSGELTAXHARAIAAAADPVALAKQIIEGGLSVRETEALARKAPNLSAGKSKGGRPPRVKDTDTQALESDLSSVLGLDVSIDHRGSTGTLTITYATLEQLDDLCNRLTRGI

Variants of: B1
Assay: one-hybrid fitness for binding parS DNA (scaled: cognate 1, non-cognate 0); higher = stronger binding
Conditions: with parS DNA site
Method in brief: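 Values were rescaled so that cognate is 1 and non-cognate is 0. Each is a fitness, the log change in a variant's read ratio to wild type from Illumina reads of plasmids before and after selection, with three replicate libraries pooled and variants under 10 reads dropped. Selection of the Caulobacter ParB libraries, four specificity codons randomised, used E. coli USO with a HIS3 reporter, site 19 bp from the promoter, on M9-minus-histidine with 0.1 mM IPTG and 5 mM 3-AT for 48 hours at 37°C.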

Variant | one-hybrid fitness for binding parS DNA
TWPD | ≤ 0.2
AMCL | ≤ 0.2
KQFG | ≤ 0.2
RHTT | 0.868
HNRY | ≤ 0.2
CGLL | ≤ 0.2
YPES | ≤ 0.2
PNRK | ≤ 0.2
RDKY | ≤ 0.2
TELY | ≤ 0.2
GDPA | ≤ 0.2
RKHR | ≤ 0.2
TKFT | ≤ 0.2
KWTR | ≤ 0.2
SHVT | ≤ 0.2
QMRG | ≤ 0.2
INML | ≤ 0.2
KDAG | ≤ 0.2
TQNM | ≤ 0.2
GGSK | ≤ 0.2
KQFS | ≤ 0.2
PLPA | ≤ 0.2
RYNV | ≤ 0.2
EKCT | ≤ 0.2

Variant | one-hybrid fitness for binding parS DNA
PTCI | ≤ 0.2
PGGN | ≤ 0.2
GYKS | ≤ 0.2
PAHN | ≤ 0.2
ISNR | ≤ 0.2
TIDD | ≤ 0.2
RGGM | ≤ 0.2
GHQD | ≤ 0.2
PSHA | ≤ 0.2
QTIF | ≤ 0.2
IWMG | ≤ 0.2
IVNR | ≤ 0.2
RTCL | ≤ 0.2
GRPV | ≤ 0.2
TCKN | ≤ 0.2
GVGP | ≤ 0.2
HRIS | ≤ 0.2
CPLG | ≤ 0.2
SCAM | ≤ 0.2
AWWS | ≤ 0.2
QFLY | ≤ 0.2
CKGR | ≤ 0.2
YGFR | ≤ 0.2
DAGE | ≤ 0.2

Variant | one-hybrid fitness for binding parS DNA
QPNK | ≤ 0.2
RRDK | ≤ 0.2
LPPS | ≤ 0.2
YRSR | ≤ 0.2
FNDR | ≤ 0.2
YVLM | ≤ 0.2
RTLW | 0.253
VQNT | ≤ 0.2
VMRE | ≤ 0.2
GVPK | ≤ 0.2
CYSP | ≤ 0.2
EHQF | ≤ 0.2
IYQV | ≤ 0.2
TTFV | ≤ 0.2
PPPI | ≤ 0.2
MVKT | ≤ 0.2
ISIH | ≤ 0.2
LILT | ≤ 0.2
GRSC | ≤ 0.2
AHIR | ≤ 0.2
DNTM | ≤ 0.2
KNWT | ≤ 0.2
KKIS | ≤ 0.2
SATN | ≤ 0.2

Variant | one-hybrid fitness for binding parS DNA
MVNT | ≤ 0.2
HDED | ≤ 0.2
NSQY | ≤ 0.2
GESA | ≤ 0.2
EPVS | ≤ 0.2
SPDC | ≤ 0.2
GAPL | ≤ 0.2
VRHN | ≤ 0.2
FDQE | ≤ 0.2
LQVV | ≤ 0.2
EQLY | ≤ 0.2
KKCS | ≤ 0.2
GSIG | ≤ 0.2
CPVG | ≤ 0.2
HNES | ≤ 0.2
TMAT | ≤ 0.2
PLDE | ≤ 0.2
GTDR | ≤ 0.2
CAKF | ≤ 0.2
VETL | ≤ 0.2
NNMF | ≤ 0.2
RIHY | 0.461
IHPQ | ≤ 0.2
RMFG | 1

Variant | one-hybrid fitness for binding parS DNA
TISS | ≤ 0.2
HIKL | ≤ 0.2
QTMK | ≤ 0.2
HLCL | ≤ 0.2
CPKM | ≤ 0.2
ADQR | ≤ 0.2
QRMR | ≤ 0.2
GGPY | ≤ 0.2
PSAC | ≤ 0.2
VWDG | ≤ 0.2
CVSR | ≤ 0.2
LAMM | ≤ 0.2
LAAT | ≤ 0.2
PWAT | ≤ 0.2
QHDS | ≤ 0.2
NLPN | ≤ 0.2
SWPP | ≤ 0.2
SYNE | ≤ 0.2
MVIC | ≤ 0.2
REVY | ≤ 0.2
MQGF | ≤ 0.2
VSIV | ≤ 0.2
LNST | ≤ 0.2
IVLN | ≤ 0.2

Variant | one-hybrid fitness for binding parS DNA
DGRT | ≤ 0.2
SSYE | ≤ 0.2
TYGT | ≤ 0.2
RFKL | ≤ 0.2
LQTG | ≤ 0.2
HPER | ≤ 0.2
IDSL | ≤ 0.2
KWSM | ≤ 0.2
AHTM | ≤ 0.2
HLPT | ≤ 0.2
PWLA | ≤ 0.2
GRSW | ≤ 0.2
EPSG | ≤ 0.2
RVNN | 0.416
RGYM | ≤ 0.2
RSLP | ≤ 0.2
QAKF | ≤ 0.2
CHAH | ≤ 0.2
HYEV | ≤ 0.2
AVSA | ≤ 0.2
ERKP | ≤ 0.2
EKEV | ≤ 0.2
RNVD | ≤ 0.2
HIHL | ≤ 0.2

Variant | one-hybrid fitness for binding parS DNA
HSKR | ≤ 0.2
GVSL | ≤ 0.2
VKLC | ≤ 0.2
VTGG | ≤ 0.2
ALRA | ≤ 0.2
NWTA | ≤ 0.2
CNTW | ≤ 0.2
NRWT | ≤ 0.2
MRKP | ≤ 0.2
NQFT | ≤ 0.2
NAKL | ≤ 0.2
AVGN | ≤ 0.2
YRTD | ≤ 0.2
PTWD | ≤ 0.2
PLVP | ≤ 0.2
LLEG | ≤ 0.2
TCAR | ≤ 0.2
NLHG | ≤ 0.2
HILE | ≤ 0.2
RHWH | ≤ 0.2
LWLM | ≤ 0.2
HTSY | ≤ 0.2
MSLC | ≤ 0.2
HTKY | ≤ 0.2

Variant | one-hybrid fitness for binding parS DNA
TAPE | ≤ 0.2
QLLD | ≤ 0.2
RWAF | ≤ 0.2
INCS | ≤ 0.2
WVHI | ≤ 0.2
CAST | ≤ 0.2
WMTR | ≤ 0.2
KKYS | ≤ 0.2
HEHA | ≤ 0.2
QKRY | ≤ 0.2
EHWR | ≤ 0.2
VGQW | ≤ 0.2
ELNG | ≤ 0.2
LVHH | ≤ 0.2
ASKN | ≤ 0.2
LLIF | ≤ 0.2
GYNG | ≤ 0.2
SPVS | ≤ 0.2
KPQW | ≤ 0.2
LGTM | ≤ 0.2
TWSC | ≤ 0.2
GGFS | ≤ 0.2
TADP | ≤ 0.2
PLFV | ≤ 0.2

Variant | one-hybrid fitness for binding parS DNA
HVVG | ≤ 0.2
VRFR | ≤ 0.2
SAHC | ≤ 0.2
VTSD | ≤ 0.2
TPEW | ≤ 0.2
GGSN | ≤ 0.2
AREG | ≤ 0.2
SFPE | ≤ 0.2
LRHT | ≤ 0.2
TDGL | ≤ 0.2
AGLI | ≤ 0.2
TAMD | ≤ 0.2
QHIV | ≤ 0.2
RPQG | ≤ 0.2
GLCC | ≤ 0.2
RHAQ | ≤ 0.2
IRRK | ≤ 0.2
WRGT | ≤ 0.2
PVTW | ≤ 0.2
RIAH | 0.279
CCQG | ≤ 0.2
GPAC | ≤ 0.2
MTKN | ≤ 0.2
PYHL | ≤ 0.2

Variant | one-hybrid fitness for binding parS DNA
KMNQ | ≤ 0.2
VNPC | ≤ 0.2
PTCQ | ≤ 0.2
LAFI | ≤ 0.2
PWPW | ≤ 0.2
ATGS | ≤ 0.2
WDSN | ≤ 0.2
SPDD | ≤ 0.2
GVDS | ≤ 0.2
NDVR | ≤ 0.2
QVIR | ≤ 0.2
IMNS | ≤ 0.2
QPFV | ≤ 0.2
QGMY | ≤ 0.2
TRFC | ≤ 0.2
TRIM | ≤ 0.2
LGDY | ≤ 0.2
WNTI | ≤ 0.2
KHPF | ≤ 0.2
KQPG | ≤ 0.2
QQYE | ≤ 0.2
CCWG | ≤ 0.2
AYMW | ≤ 0.2
NDPC | ≤ 0.2

Variant | one-hybrid fitness for binding parS DNA
MPPC | ≤ 0.2
QCKN | ≤ 0.2
DMYR | ≤ 0.2
QTPQ | ≤ 0.2
AYPV | ≤ 0.2
VWIR | ≤ 0.2
PIYF | ≤ 0.2
LNAD | ≤ 0.2
YFSE | ≤ 0.2
LAPV | ≤ 0.2
LKDS | ≤ 0.2
QRVN | ≤ 0.2
VPVY | ≤ 0.2
FSTT | ≤ 0.2
ACGS | ≤ 0.2
YRKL | ≤ 0.2
PDGG | ≤ 0.2
MGFT | 0.389
ATFR | ≤ 0.2
LDML | ≤ 0.2
AHDT | ≤ 0.2
TEGI | ≤ 0.2
LSIT | ≤ 0.2
EMLC | ≤ 0.2

Variant | one-hybrid fitness for binding parS DNA
RHHC | 0.934
SIWT | ≤ 0.2
VCTC | ≤ 0.2
PPWR | ≤ 0.2
RPTS | ≤ 0.2
QTVV | ≤ 0.2
QCME | ≤ 0.2
IYYR | ≤ 0.2
RHVP | ≤ 0.2
ALQF | ≤ 0.2
PPIW | ≤ 0.2
SLSP | ≤ 0.2
CIAS | ≤ 0.2
GLAN | ≤ 0.2
ALDV | ≤ 0.2
KMSG | ≤ 0.2
AMGG | ≤ 0.2
SDAV | ≤ 0.2
FPTV | ≤ 0.2
YIQL | ≤ 0.2
LTTT | ≤ 0.2
DLIY | ≤ 0.2
CVGG | ≤ 0.2
RIDK | ≤ 0.2

Variant | one-hybrid fitness for binding parS DNA
PLAP | ≤ 0.2
SEQT | ≤ 0.2
VLKV | ≤ 0.2
QLLN | ≤ 0.2
EYVR | ≤ 0.2
APAE | ≤ 0.2
TLDS | ≤ 0.2
WTRH | ≤ 0.2
MEYR | ≤ 0.2
YKQS | ≤ 0.2
QCMR | ≤ 0.2
VLNG | ≤ 0.2
TRLE | ≤ 0.2
RCNT | 0.879
AKKM | ≤ 0.2
YYHG | ≤ 0.2
QGIS | ≤ 0.2
RFNV | ≤ 0.2
